# Measured values published in ChEMBL document CHEMBL4888484, “Replenishing the malaria drug discovery pipeline: Screening and hit evaluation of the MMV Hit Generation Library 1 (HGL1) against asexual blood stage Plasmodium falciparum ,using a nano luciferase reporter read-out” (2022).
# Screen size: about 150,000 compounds; about 540 (0.36%) showed an effect of 50% or more. The list shows a part of the results.
# System: Plasmodium falciparum
# Assay: Primary screen in NF54 nanoGlo assay, in single point, at 2uM, 72h; a lower Z score goes with more inhibition
# Assay type: functional, Erythrocyte
# Settings: timepoint 72 hour
SMILES,% Inhibition,Z score
O=C(Oc1ccccc1)N(c1ccc2oc(=O)sc2c1)S(=O)(=O)c1cccc2cccnc12,-47%,6.29
Cc1cccn2cc(CN3C[C@@H]4[C@@H]5CC[C@@H](C5)[C@@H]4C3)nc12,-10%,1.86
c1ccc([C@@H]2CN(Cc3nccs3)[C@@H]3C4CCN(CC4)[C@@H]32)cc1,-16%,2.42
O=C(C1CCC1)N1[C@H]2CC[C@@H]1c1cnc(-c3ccccc3)nc1C2,-7%,0.95
O=C(Cc1noc2ccccc12)N1CC2CCCC(C1)N2,37%,-1.56
Cc1ccccc1C[C@H](C)NCCCn1ccnc1,-5%,0.42
O=C(c1cnccn1)N1C[C@@H]2C[C@H](C1)c1c(-c3ccccc3)ccc(=O)n1C2,-13%,2.48
c1ccc(CN2CCNC[C@H]2C2CCC2)cc1,-13%,2.52
C[C@@H](Cn1cncn1)NCc1noc(-c2ccco2)n1,-18%,2.18
O=C1CN[C@@H](c2ccc(Cl)cc2)c2cc(Br)ccc2N1,-4%,0.64
CC(=O)C1(c2ccccc2)CCN(C(=O)N2CCN(C)CC2)CC1,-5%,0.97
Cc1ccc(CNC(=O)CN2C[C@@H]3CC[C@H]2C3)c2cccnc12,-7%,1.29
O=S(=O)(F)c1ccc(S(=O)(=O)N2CC3CC(O)C3C2)cc1 (centres undefined),1%,-0.15
COCCN[C@H](c1cncc(Br)c1)C1CC1,6%,-0.6
N#Cc1ccc(N2CCC[C@H]2c2ccco2)cc1C(F)(F)F,1%,-0.08
O=C(NCCN1CCCCC1)Oc1ccccc1,0%,-0.06
Cc1cnn(C[C@H](C)NCc2noc(C3CC3)n2)c1,-7%,0.84
CC(C)(C(=O)N1C2CCC1C(CO)C2)c1cccnc1 (centres undefined),-11%,1.53
COc1ccc(-c2c(C(=O)O)nnn2Cc2ccc(OC)c(F)c2)cc1,-11%,1.19
COc1cccc([C@H]2CN(c3nccnc3C)[C@@H]3C4CCN(CC4)[C@H]23)c1,-13%,1.18
Cc1cc(CN(C)C(=O)CN2CC3(CCCCC3)CC2=O)on1,-12%,2.2

SMILES,% Inhibition,Z score
O=C1NC2(CCNCC2)C(=O)N1Cc1ccc(Cl)s1,-7%,0.89
COc1ccccc1[C@H]1CN(C)[C@@H]2C3CCN(CC3)[C@H]12,-6%,1.03
Cc1c(C)[n+]([O-])c([C@@H](c2cc(F)c(F)c(F)c2)C2C(=O)N(C)C(=O)N(C)C2=O)n1Cc1ccccc1,0%,-0.04
CC(C(O)c1ccc2c(c1)CCCC2)N1CCCCC1 (centres undefined),-24%,3.1
O=C(NC1(Cc2ccc(Cl)cc2)CCC1)c1ccc(S(=O)(=O)F)cc1,-5%,0.51
Cc1cc(Cl)ccc1OCC(=O)N1CCC2(CC1)OCCO2,-20%,2.65
Cc1noc(C)c1CN1CCOCC2(CC2)C1,6%,-0.6
Cc1nc(-c2cccs2)cc([C@H]2CN3CC[C@H]2C[C@@H]3CNC(=O)C2CCC2)n1,29%,-3.27
Cc1ccc(OCC(=O)N2C[C@H]3CC[C@@H](C2)N(C)C3)cc1C,-18%,1.62
CC(=O)c1c(-c2cccc(C(=O)N[C@H]3CN4CCC3CC4)c2)cnn1C,-5%,1.09
Cc1ccc(S(=O)(=O)NC[C@H]2C[C@@H]3CC[N@]2C[C@@H]3CN2CCC(Cc3ccccc3)CC2)cc1,19%,-2.96
CN1C(=O)CO[C@H]2CN(Cc3ccncc3)C[C@H]21,-6%,1.1
Nc1ccc(-c2ccc([C@@H]3CCCN3)cc2)nc1,2%,-0.34
O=C(c1c[nH]c2cc(Cl)ccc2c1=O)N1CCC2(CC1)OCCO2,-9%,1.17
CC(C)Oc1ccc(C(=O)NCC#CCN(C)C)cc1,-9%,1.69
Cn1nc(C(=O)NC2CCOCC2N2CCCC2)cc1Cl (centres undefined),-19%,2.49
CN(Cc1ccc(Br)o1)C(=O)CN1CCCC1=O,-8%,1.3
CCNC(=O)c1ccnc(N2C[C@@H](c3ccccc3)[C@@H]3[C@H]2C2CCN3CC2)c1,-14%,1.33
CN1C2CCC1CN(c1cncc(Br)c1)CC2 (centres undefined),-6%,0.81
O=C1N=C(O)N(c2ccc(Cl)cc2)C(=O)C12Cc1ccccc1N1CCN(c3ccccc3)CC12 (centres undefined),14%,-1.77
Cc1ccc(NC(=O)N2CC(=O)N(CC(=O)N3CCC4(CC3)OCCO4)c3ccccc32)cc1,-3%,0.46

SMILES,% Inhibition,Z score
COc1ccc(NC(=O)CN2CCCNS2(=O)=O)cc1,-12%,1.56
Cc1ccc(-c2cn(CC(=O)Nc3cccc(C)c3)c(=O)o2)cc1,-12%,1.18
Cc1nnc(CN2CC=C(c3ccc(Cl)c(Cl)c3)CC2)n1C,-3%,0.47
CCN1CCC2C(C1)OCCN2C(=O)Cc1cccnc1 (centres undefined),1%,-0.12
Cc1ccc([C@H](C)Nc2cc(C)nc(N)n2)cn1,-8%,1.15
C[C@H]1COC2(CCN(C(=O)c3cc4c(OC(F)(F)F)cccc4[nH]3)CC2)O1,6%,-0.84
CCc1cccc(N(C(=O)c2ccc(NC(C)=O)cc2)C2(C(=O)NCc3ccccc3)CCN(C(C)=O)CC2)c1,0%,0
COc1ccccc1[C@@H]1CN(C(=O)c2ccc(C)[nH]c2=O)[C@@H]2C3CCN(CC3)[C@@H]21,5%,-0.56
Cc1ccc(CN2CCCC23CCN(c2ccccn2)CC3)o1,-14%,2.71
Cc1cnn(C2CCCN(C(C)C(=O)Nc3ccc(C#N)c(Cl)c3)C2)c1 (centres undefined),-2%,0.21
Cc1c(C)[n+]([O-])c([C@@H](c2ccc(O)cc2)C2C(=O)N(C)C(=O)N(C)C2=O)n1Cc1ccccc1,5%,-0.67
Clc1ccc(-n2nnnc2C2(NC3CCCCC3)CCCCC2)cc1,6%,-0.79
O=C1NC(=O)C(Cc2cccs2)C(=O)N1,9%,-1.6
CCc1cc(N2CC3(CCN3Cc3ccccc3)C2)ncn1,1%,-0.07
COc1ccc(CNc2ccc3oc(=O)[nH]c3c2)c(OC(C)C)c1,-9%,1.21
C[C@@H](C(=O)Nc1ccccc1OC(F)F)N1CC=C(c2cccnc2)CC1,-2%,0.37
COCc1nn(Cc2ccc(OC(F)F)cc2)c(=O)o1,-5%,0.98
CN1C[C@H]2CC[C@@H](C1)N(C(=O)c1cc(C(C)(C)C)nc(=O)[nH]1)C2,3%,-0.55
CC(C)CCCN1C(=O)NC(=O)[C@@]2(Cc3c(ccc4ccccc34)N(C)C2)C1=O,-1%,0.12
O=C(O)[C@@]12COc3ccccc3[C@@H]1CN(CCCC(F)(F)F)C2,-1%,0.18
CCn1cc(C(=O)NCc2ccc(N3CCNCC3)c(F)c2)cn1,-7%,0.95

SMILES,% Inhibition,Z score
CCn1cc(CNc2nc(C(F)(F)F)cs2)c(=O)[nH]c1=O,26%,-2.97
O=C(Nc1ccncc1)[C@@H]1Cc2[nH]cnc2C2(CCCCC2)N1,-6%,0.88
COc1ccc(C(=O)N2CCN3CCC2CC3)c(OC)c1,-6%,0.89
O=C(c1cc(F)cc(F)c1)N1CCC2(CC1)N(c1ccccc1)C(=O)CS2(=O)=O,-15%,2.33
CCN(CC)C(=O)Oc1ccc2c(ccn2Cc2ccc(C#N)cc2)c1-c1ccc(F)c(Cl)c1,-5%,0.8
Cc1ccc([C@H]2CN(C(=O)Cc3ccc4[nH]c(C)nc4c3)C[C@@H]2N(C)C)cc1,-10%,0.97
CC(C)Cn1ncnc1CN1CCC[C@H](c2n[nH]c(=O)o2)C1,13%,-1.64
CCN(CCn1cccn1)S(=O)(=O)c1ccc2oc(=O)[nH]c2c1,-15%,2.93
CC(=O)OC1(c2ccccc2)CCCCC1CN(C)C (centres undefined),-7%,1.17
CCNC1(c2nnnn2-c2cccc(C)c2)CCCCC1,-3%,0.39
Cc1nnc(CN2CC3CCC(C2)O3)o1,4%,-0.49
O=C(c1ccccc1)N1C[C@@H]2C[C@H](C1)c1c(-c3cncnc3)ccc(=O)n1C2,-11%,2.13
CCOc1ccc(CC2(CN3CCc4cc(OC)c(OC)cc4[C@@H]3C)C(=O)N(C)C(=O)N(C)C2=O)cc1,-1%,0.14
N[C@@H](Cc1c[nH]cn1)c1ncnn1C1Cc2ccccc2C1,4%,-0.55
C[C@@H](CNC(=O)N1CCN2CCC1CC2)c1ccc(F)cc1F,-6%,0.88
CC(C)(C)OC(=O)N1CCN2C[C@@H](F)C[C@H]2C1,-5%,0.63
CN1CC[C@]2(CCN(C(=O)Nc3cccc(-c4ccon4)c3)C2)C1,-8%,1.44
Cc1nc(-c2nn(CCN3CCCCC3)c3ccccc23)no1,-3%,0.41
O=c1[nH]c2cc(Br)c(S(=O)(=O)N3CCCO3)c(Cl)c2o1,4%,-0.74
